Measurements as given in paper PMC13575168.
No constants are given. Whether binding was seen depends on the method and setting. Binding seen in cells or lysates may run through a third protein. Some entries that bind do so weakly or less than the wild type.

Key:
Test in all cases: co-IP
[1] = target: FLAG-tagged SARS-CoV-2 ORF3a R68A (SARS-CoV-2) (UniProt P0DTC3)
[2] = target: SARS-CoV-2 ORF3a^Y160A (SARS-CoV-2) (UniProt P0DTC3)
[3] = target: FLAG-tagged SARS-CoV-2 ORF3a RWQ/AAA (SARS-CoV-2) (UniProt P0DTC3)
[4] = target: FLAG-tagged SARS-CoV-2 ORF3a Q70A (SARS-CoV-2) (UniProt P0DTC3)
[5] = target: SARS-CoV-2 ORF3a^Q116L (SARS-CoV-2) (UniProt P0DTC3)
[6] = target: FLAG-tagged SARS-CoV-2 ORF3a W69A (SARS-CoV-2) (UniProt P0DTC3)

Measured: binding

B1: endogenous CLCC1 of 293FT cells (protein, UniProt Q96S66 19-551)
chain: HDDDWIDPTDMLNYDAASGTMRKSQAKYGISGEKDVSPDLSCADEISECYHKLDSLTYKIDECEKKKREDYESQSNPVFRRYLNKILIEAGKLGLPDENKGDMHYDAEIILKRETLLEIQKFLNGEDWKPGALDDALSDILINFKFHDFETWKWRFEDSFGVDPYNVLMVLLCLLCIVVLVATELWTYVRWYTQLRRVLIISFLFSLGWNWMYLYKLAFAQHQAEVAKMEPLNNVCAKKMDWTGSIWEWFRSSWTYKDDPCQKYYELLLVNPIWLVPPTKALAVTFTTFVTEPLKHIGKGTGEFIKALMKEIPALLHLPVLIIMALAILSFCYGAGKSVHVLRHIGGPESEPPQALRPRDRRRQEEIDYRPDGGAGDADFHYRGQMGPTEQGPYAKTYEGRREILRERDVDLRFQTGNKSPEVLRAFDVPDAEAREHPTVVPSHKSPVLDTKPKETGGILGEGTPKESSTESSQSAKPVSGQDTSGNTEGSPAAEKAQLKSEAAGSPDQGSTYSPARGVAGPRGQDPVSSPCG
binds: all assays above
